Data as given in the supplement of paper PMC10126150.
Values marked as one replicate rest on one cluster of the flow cell; about a third of the high ones do not repeat.
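Note: ATP exposure 15 min at 22 °C before imaging.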

Each sequence was assayed on ATP (assay: switch fluorescence ratio, 500 uM ATP over buffer (Cy3 cluster intensity, sum of 5 cycles each) (fold (ratio)); higher = stronger signal-on switching upon ATP binding; sequences stand for … in TCGTCGGCAGCGTCAGATGTGTATAAGAGACAGTTTTTTTTTTTTTTTTTTTTTTTTT…TC). Conditions: aptamer strand: ATP DNA aptamer (quencher-CACCTGGGGGAGTATTGCGGAGGAAGG + anchor), 100 nM annealed; ATP concentration: 500 uM; one replicate.
How it was run: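 Five buffer/ATP imaging cycles were run on Cy3-labelled switching-strand clusters on a modified Illumina MiSeq flow-cell, with NaOH stripping and re-annealing between cycles. In each cycle, clusters annealed to 100 nM quencher-labelled ATP aptamer were imaged in selection buffer, then after 15 min with 500 uM ATP at 22 °C. Per cluster, the fluorescence ratio is summed target-cycle over summed buffer-cycle Cy3 intensity, averaged per switch-domain sequence. Only clusters within 100-1000 RFU were kept.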
Work on AGCACAGCGG yielded a switch fluorescence ratio of 1.06. CTTGATACGC was tested, and the switch fluorescence ratio was 1.24. CCAGGCACCA showed a switch fluorescence ratio of 1.07. Sequence CTCAGTTAAG has a switch fluorescence ratio of 0.97. GACACCGTGG was tested, and the switch fluorescence ratio was 0.987. For AGGCTCTGCT, the switch fluorescence ratio was 0.959. In the case of AAAACTGCAA, the switch fluorescence ratio is reported as 1.54. CGTCAAAGGG was tested, and the switch fluorescence ratio was 1.01. Work on TGGCCGATTC yielded a switch fluorescence ratio of 1.07. ATTGTGGGTA was tested, and the switch fluorescence ratio was 0.981. With AAGAGAATAT the switch fluorescence ratio was 0.992. ATGTAGCGGC was tested, and the switch fluorescence ratio was 1.12. In the case of TCATGGTTAT, the switch fluorescence ratio is reported as 1.05. CTAGTTCTGA was tested, and the switch fluorescence ratio was 0.976. For AAAGGGAGTC, the switch fluorescence ratio was 0.954. Work on CTTGTAGCAT yielded a switch fluorescence ratio of 1.54. For TTCGGAATCG, the switch fluorescence ratio was 0.96. CGAGCCGGTC was tested, and the switch fluorescence ratio was 0.947. GGACCGGTGC gave a switch fluorescence ratio of 1.01. In the case of CCATGGTGCT, the switch fluorescence ratio is reported as 1.58. With GAAATGGGTC the switch fluorescence ratio was 1. In the case of CCGATGACTT, the switch fluorescence ratio is reported as 1.2. Work on CTTATTGTGG yielded a switch fluorescence ratio of 0.995. GGAAGGCACA gave a switch fluorescence ratio of 1.05. TCCGGTCAAC gave a switch fluorescence ratio of 1.54. For TGCGACTCGC, the switch fluorescence ratio was 0.986. In the case of GCAATGAACG, the switch fluorescence ratio is reported as 1.18. Sequence CTGGACTAG has a switch fluorescence ratio of 0.944. GTGTGCGCCG showed a switch fluorescence ratio of 0.997. TTTGCATTAC gave a switch fluorescence ratio of 3.67. With TTACCGAGCT the switch fluorescence ratio was 1.19. Sequence TCGAACGCGC has a switch fluorescence ratio of 2.19. For GCTGTCTGGC, the switch fluorescence ratio was 1.02. With CGGAAACGCG the switch fluorescence ratio was 1. ATCGGGCGCG showed a switch fluorescence ratio of 0.989. Sequence TCCTCGATGT has a switch fluorescence ratio of 1.02. CTGACGTCTA was tested, and the switch fluorescence ratio was 1.24. With CTGATACCTG the switch fluorescence ratio was 1.03. GTTGCCGCTG gave a switch fluorescence ratio of 1.05. For CCGTGATAAC, the switch fluorescence ratio was 6.13. In the case of TTTCACTGAG, the switch fluorescence ratio is reported as 1.02. With AGAGATCTGT the switch fluorescence ratio was 0.968. TAGGGCGGAT gave a switch fluorescence ratio of 1.04. With CGGGATTGA the switch fluorescence ratio was 1.01. With ATAGGAGCCC the switch fluorescence ratio was 1.01. Sequence TCTTACATGG has a switch fluorescence ratio of 1.08. TTTAGAGCAG gave a switch fluorescence ratio of 1.05. Sequence CGTACCGCTC has a switch fluorescence ratio of 1.3. In the case of CCTAGTAAGC, the switch fluorescence ratio is reported as 1.87. GTCATTTTAC was tested, and the switch fluorescence ratio was 1.02. With CGTTCTAATC the switch fluorescence ratio was 1.02. GTACGAAGGT gave a switch fluorescence ratio of 1.08. In the case of ATTCGACTG, the switch fluorescence ratio is reported as 0.983. CTGCCAATCG gave a switch fluorescence ratio of 1.24. In the case of GCGACGGCTG, the switch fluorescence ratio is reported as 0.959. Work on CCCGCGATGC yielded a switch fluorescence ratio of 1.23. GGTGGTCCCG gave a switch fluorescence ratio of 0.965. In the case of TGACTGTACG, the switch fluorescence ratio is reported as 1.08. Work on GGCCCCCCCC yielded a switch fluorescence ratio of 1.05. CGTAGTTCCT was tested, and the switch fluorescence ratio was 0.954. With GCATCCTGTG the switch fluorescence ratio was 0.995. Work on GAACAAATGT yielded a switch fluorescence ratio of 0.966. GGTCCCAGCC showed a switch fluorescence ratio of 1.03. For TGTTCTTTCA, the switch fluorescence ratio was 0.963. TCCTGTTCGT was tested, and the switch fluorescence ratio was 1. CTAGCGGATA was tested, and the switch fluorescence ratio was 1.04. Sequence CTTTTTAGCC has a switch fluorescence ratio of 1.09. With ACTTAGAGGA the switch fluorescence ratio was 1. In the case of AAGTTTTACG, the switch fluorescence ratio is reported as 0.951. TTAGCACATC gave a switch fluorescence ratio of 2.13. For TATAACGTTT, the switch fluorescence ratio was 0.976. With GCCCCCGCGG the switch fluorescence ratio was 1.22. Work on GCCGATTGAT yielded a switch fluorescence ratio of 0.996. CGGAGTGTAT was tested, and the switch fluorescence ratio was 1.17. Sequence TTGGCCGACA has a switch fluorescence ratio of 1.01. GCCACTTGGG was tested, and the switch fluorescence ratio was 0.961. ATTGCTTGAA was tested, and the switch fluorescence ratio was 1.05. For GATATCCG, the switch fluorescence ratio was 0.977. Work on CGAAGGCCTT yielded a switch fluorescence ratio of 0.961. With AACGTGGAAT the switch fluorescence ratio was 1.01. In the case of CGGCCGATCT, the switch fluorescence ratio is reported as 0.994. TTACCAATAA showed a switch fluorescence ratio of 5.18. Work on CGGGTTCATG yielded a switch fluorescence ratio of 1.01. For TGTATGGTC, the switch fluorescence ratio was 0.943. Work on CTGTCTGTCT yielded a switch fluorescence ratio of 1.02. Sequence ATCAGGTGGG has a switch fluorescence ratio of 1.15. AAAGACATAA gave a switch fluorescence ratio of 1.08. Sequence TGCTGTATTT has a switch fluorescence ratio of 0.969. With GAATACCGGG the switch fluorescence ratio was 0.982. Sequence TGCAACCCGG has a switch fluorescence ratio of 0.992. CGAGATTCTA gave a switch fluorescence ratio of 0.984. TTAGGTAAGT gave a switch fluorescence ratio of 0.996. Work on GCCGGGCTCA yielded a switch fluorescence ratio of 0.981. ACTGTTATGC showed a switch fluorescence ratio of 1.11. GTGTTAGGCC showed a switch fluorescence ratio of 1.02. With TGGAGTCGGG the switch fluorescence ratio was 1. With TCATCGGTAA the switch fluorescence ratio was 1.55. Sequence CACGGGGAAA has a switch fluorescence ratio of 1.23. For TTCTGGGGT, the switch fluorescence ratio was 1. Sequence CGGCCCATGG has a switch fluorescence ratio of 1.02. For TAGATTCGGG, the switch fluorescence ratio was 1.02. Sequence CTAGTTGGGT has a switch fluorescence ratio of 1.03. AATCGTTTTA was tested, and the switch fluorescence ratio was 0.998. ACTCCGGCCG was tested, and the switch fluorescence ratio was 1.46. CCGTGATCA was tested, and the switch fluorescence ratio was 1.1. GAGGGCCAAC gave a switch fluorescence ratio of 0.95. CAGCTAATGC showed a switch fluorescence ratio of 1.65. Sequence AACGATGGTG has a switch fluorescence ratio of 0.961. Work on GCTTTATGGA yielded a switch fluorescence ratio of 1.03. CTCGGAAACT gave a switch fluorescence ratio of 1.04. TGCGACAATG was tested, and the switch fluorescence ratio was 0.947. With CCGGTACATC the switch fluorescence ratio was 1.28. With AAACGGGGCC the switch fluorescence ratio was 1.04. With CTGGACGACG the switch fluorescence ratio was 1.01. In the case of AGTAGTTGCT, the switch fluorescence ratio is reported as 0.991. For TGGCTTTCAG, the switch fluorescence ratio was 0.987. TGCAGAAGCA showed a switch fluorescence ratio of 1.01. AAAGCCACAT was tested, and the switch fluorescence ratio was 1.03. With CATGGGTTGG the switch fluorescence ratio was 0.941. Sequence AGGGACAGAT has a switch fluorescence ratio of 1.01. In the case of CCGGAGTCTT, the switch fluorescence ratio is reported as 4.08. CCTAAGTTGT was tested, and the switch fluorescence ratio was 1.05. For TAAGCGTGGA, the switch fluorescence ratio was 1.05. For ACCCCATAAC, the switch fluorescence ratio was 1.12. For GCTTCTCGA, the switch fluorescence ratio was 0.975. Work on CACGCGCAAG yielded a switch fluorescence ratio of 1.21. With CAAATTCCCT the switch fluorescence ratio was 1.1. In the case of CCCCTGCCTA, the switch fluorescence ratio is reported as 1.16. Sequence GGTTGTGTAC has a switch fluorescence ratio of 1.14. For GAGCTAGGTT, the switch fluorescence ratio was 1.04. Work on AAGGGGATGA yielded a switch fluorescence ratio of 0.984. Sequence GTGCTTGAAA has a switch fluorescence ratio of 1.03. For GCCTGTTTCA, the switch fluorescence ratio was 1.02. In the case of TGTGTAGGGA, the switch fluorescence ratio is reported as 1.66. Work on TGTCCAAAGA yielded a switch fluorescence ratio of 1.02. GATGGGGAAG gave a switch fluorescence ratio of 0.97. In the case of GTAACAGTGC, the switch fluorescence ratio is reported as 1.06. In the case of TCTCATACGC, the switch fluorescence ratio is reported as 1.29. In the case of CGGTAGTGTC, the switch fluorescence ratio is reported as 1.04. For CTGTAATCAG, the switch fluorescence ratio was 0.972. In the case of TTGAGGGTT, the switch fluorescence ratio is reported as 1.02. CCCCTAGGGA gave a switch fluorescence ratio of 1.09. CACGGTTCCA gave a switch fluorescence ratio of 1.07. With GTTGCCGTTA the switch fluorescence ratio was 0.961. CTAGGAACTT was tested, and the switch fluorescence ratio was 0.999. With CAATGAGTCC the switch fluorescence ratio was 1.04. ATCTGTTGGC showed a switch fluorescence ratio of 1.01. Sequence TCGCATCCCA has a switch fluorescence ratio of 1.65. For GGAGCCGTGG, the switch fluorescence ratio was 1. CTGCGTCAG showed a switch fluorescence ratio of 0.995. TTCCATTGAG was tested, and the switch fluorescence ratio was 1. Sequence TCAAGCAACT has a switch fluorescence ratio of 1.16. For AAAGAGGATT, the switch fluorescence ratio was 0.957.
